{"source": "PubChem BioAssay AID686978", "about": "(National Center for Advancing Translational Sciences (NCATS), 2013)", "note": "Among all 420,000 compounds or so, about 64,000 (15%) were called active. The shares of active, inactive and inconclusive entries below differ from those in the screen. Calls come from the whole dose curve; as a rule, active = well fitted inhibition curve with a large enough effect; inconclusive = small, poorly fitted or top-dose-only effect; inactive = flat fitted curve, though single readings scatter. Potencies of inconclusive entries are left out as doubtful fits. % is set by controls: 0 for no effect and ±100 for the full control effect; potency is the fitted concentration of half-maximal effect; tags give direction and shape of the fitted curve."}
{"test": "qHTS for Inhibitors of human tyrosyl-DNA phosphodiesterase 1 (TDP1): qHTS in cells in absence of CPT; note: nearly all actives have a fitted effect of over 55% in size", "conditions": "DT40 Tdp1-/- hTDP1 cells, no CPT, ATP luminescence, 48 h; activity change, negative = growth inhibition: at 46.2 µM (top of the series) unless noted", "how_it_was_run": "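Readout: luminescence from CellTiter-Glo after 30 min in the dark at RT. Cells: DT40 Tdp1-/- with stable hTDP1, 400/well. Exposure: compounds alone, ≥48 hr, 37 °C.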"}
{"smiles": "O=[N+]([O-])c1ccccc1NC(=S)N/N=C/c1ccc(O)c(O)c1", "Potency": "inconclusive [inhibitor, single point]"}
{"smiles": "O=C1C=C(O)c2cccc(O)c2C1=O", "Potency": "inconclusive [inhibitor, single point]"}
{"smiles": "C=C(c1ccccc1Cl)[n+]1ccccc1", "Potency": "active: 7.31 µM"}
{"smiles": "CC(=O)c1cccc(OCc2cc(C(=O)N(C)C(C)c3ccccn3)no2)c1", "note": "(stereo unspecified)", "Potency": "inconclusive [inhibitor, single point]"}
{"smiles": "COc1ccc(O)c(C(=O)c2cc(C#N)c(=O)n(-c3ccc(Cl)cc3)c2)c1", "Potency": "inconclusive [inhibitor, single point]"}
{"smiles": "Cc1cc(NC(=O)CS(=O)(=O)c2cn(Cc3ccc(F)cc3)c3ccccc23)no1", "Potency": "active: 10.3 µM"}
{"smiles": "Cc1ccc(C(=O)NCCc2nnc3ccc(SCC(=O)Nc4c(C)cc(C)cc4C)nn23)cc1", "Potency": "inconclusive [inhibitor, single point]"}
{"smiles": "COc1ccc(CCNC(=O)c2c(O)nc3ccccn3c2=O)cc1", "Potency": "inconclusive [inhibitor, single point]"}
{"smiles": "O=C(CSc1nc(O)cc(=O)n1-c1ccccc1)Nc1ccc(Br)cn1", "Potency": "inactive"}
{"smiles": "CCN(CC)S(=O)(=O)c1ccc(NC(=O)Cn2cnc3ccccc3c2=O)cc1", "activity change, negative = growth inhibition": "inconclusive: -20.7% [inhibitor]"}
{"smiles": "CNC(=O)COc1coc(CN2CCN(c3ccc(F)cc3)CC2)cc1=O", "Potency": "inactive"}
{"smiles": "Cc1c(/C=N/NC(=O)c2sc3ccccc3c2Cl)cnn1C", "Potency": "inconclusive [inhibitor, single point]"}
{"smiles": "O=C(NCC1CCN(c2ccc(S(=O)(=O)N3CCOCC3)cc2)CC1)c1cccc(Cl)c1", "Potency": "active: 11.6 µM"}
{"smiles": "COCCCNC(=S)Nc1ccc(C)cc1", "Potency": "inactive"}
{"smiles": "CC(O)(CS(=O)(=O)Cc1ccccc1Cl)C(=O)Nc1cccc(C(F)(F)F)c1", "note": "(stereo unspecified)", "Potency": "inactive"}
{"smiles": "O=C(NC(c1ccc(Cl)cc1)c1ccccn1)C1CCN(CCOc2ccc(Cl)cc2Cl)CC1", "note": "(stereo unspecified)", "Potency": "active: 18.4 µM"}
{"smiles": "O=C(COc1ccc(Cl)cc1)Nc1ccc(C(=O)OCc2cc(=O)n3ccsc3n2)cc1", "Potency": "inconclusive [inhibitor, single point]"}
{"smiles": "C=Cc1ccc(Cn2c(C)c(CNCCc3ccccc3C)c(C(=O)O)c2C)cc1", "Potency": "inconclusive [inhibitor, single point]"}
{"smiles": "O=C(NCC1CCCO1)C1CCCN(Cc2cnn(-c3ccccc3)c2-n2cccc2)C1", "note": "(stereo unspecified)", "Potency": "inconclusive [inhibitor, partial curve]"}
{"smiles": "CCn1c(SCC(=O)N2CCCc3ccccc32)nc2c(c1=O)SC(C)C2", "note": "(stereo unspecified)", "Potency": "inconclusive [inhibitor, partial curve]"}
{"smiles": "CCOC(=O)/C(C#N)=C\\c1c(OCC)n(CC)c2ccccc12", "Potency": "active: 18.4 µM"}
{"smiles": "Cc1cccc(C(=O)Nc2nnc(Cc3ccccc3)s2)c1", "Potency": "inconclusive [inhibitor, single point]"}
{"smiles": "O=C(CC[C@H]1O[C@@H](n2cnc3c(NC(=O)c4ccccc4)ncnc32)[C@H](O)[C@@H]1O)NCC(F)(F)F", "Potency": "inactive"}
{"smiles": "CS(=O)(=O)c1cccc(NC(=O)C2CCCN2S(=O)(=O)c2ccc(F)cc2)c1", "note": "(stereo unspecified)", "Potency": "inactive"}
{"smiles": "Cn1nc(C(C)(C)C)c(NC(=O)c2sccc2Cl)c1C(C)(C)C", "Potency": "inactive"}
{"smiles": "Cn1nc(C(F)(F)F)c(C(=O)Nc2ccc(F)cc2F)c1Oc1cccc(Cl)c1", "Potency": "inconclusive [inhibitor, single point]"}
{"smiles": "O=C(CCC1CCCCC1)Nc1cc(C(F)(F)F)ccc1N1CCOCC1", "Potency": "inconclusive [inhibitor, single point]"}
{"smiles": "Cc1ccc(NC(=O)CCSc2nc(-c3ccco3)cc(C(F)(F)F)n2)cc1F", "Potency": "inconclusive [inhibitor, single point]"}
{"smiles": "O=C(Nc1nc(-c2ccccc2)cs1)C1CCCCN1S(=O)(=O)c1ccccc1", "note": "(stereo unspecified)", "Potency": "active: 23.1 µM"}
{"smiles": "CC(C)[C@H](N)c1nnc(SCc2ccc(Cl)cc2)o1", "Potency": "inactive"}
{"smiles": "COc1ccc(/C=N/NC(=O)c2ccc(NC(=O)C3CCCCC3)cc2)cc1O", "Potency": "inconclusive [inhibitor, single point]"}
{"smiles": "CC(C)c1ccc(CSc2ccc(S(=O)(=O)N3CCOCC3)cn2)cc1", "Potency": "inconclusive [inhibitor, single point]"}
{"smiles": "CCS(=O)(=O)n1nc(-c2ccco2)nc1SC", "Potency": "inconclusive [inhibitor, single point]"}
{"smiles": "COc1ccc(Oc2ncc3nc(C)c(=O)n(C[C@H]4CCCO4)c3n2)cc1", "Potency": "inconclusive [inhibitor, partial curve]"}
{"smiles": "Cc1ccn2c(=O)c(C(=O)NCCCN3CCCCC3C)c(O)nc2c1", "note": "(stereo unspecified)", "Potency": "inactive"}
{"smiles": "CCOC(=O)N1CCC(NC(=O)C2CCCN(C(=O)c3cc4sccc4n3C)C2)CC1", "note": "(stereo unspecified)", "Potency": "inconclusive [inhibitor, partial curve]"}
{"smiles": "CCc1ccc(NC(=O)N2CCN(c3ccc(F)cc3)CC2)cc1", "Potency": "active: 25.9 µM"}
{"smiles": "CN(Cc1ccccc1)C(=O)CCC1CCN(C(=O)CCC(F)(F)F)CC1", "Potency": "inconclusive [inhibitor, single point]"}
{"smiles": "Cc1ccc(NC(=O)c2c(C)nc(Nc3nc4ccccc4o3)nc2C)cc1", "Potency": "inactive"}
{"smiles": "COc1ccc(O)c(/C=N/NC(=O)c2cccc(N3CCCC3=O)c2)c1", "Potency": "active: 3.26 µM"}
{"smiles": "CS(=O)(=O)N(Cc1nc(-c2ccc(F)cc2)no1)c1ccccc1Cl", "Potency": "inconclusive [inhibitor, single point]"}
{"smiles": "COc1ccc(OC)c(-c2csc(NC(=O)c3ccc(OCC4CCCO4)cc3)n2)c1", "note": "(stereo unspecified)", "Potency": "inconclusive [inhibitor, single point]"}
{"smiles": "COc1ccccc1CCC(=O)Nc1ncc(C)s1", "Potency": "inconclusive [inhibitor, single point]"}
{"smiles": "C/C(CC(=O)Nc1cc(C)ccn1)=N\\NC(=O)c1ccc(C)cc1", "Potency": "inconclusive [inhibitor, single point]"}
{"smiles": "CCc1noc(C)c1C(=O)N1CCN(S(=O)(=O)c2c(C)cc(C)cc2C)CC1", "Potency": "inactive"}
{"smiles": "COCCn1c(C)cc(C(=O)CSc2nnc3ccccn23)c1C", "Potency": "inactive"}
